The source of these data is the supplement of paper PMC7125110.

The labels stand for the following.
B1: glmS ribozyme (parent)
chain: AUAAAAGCGCCAGAACUACAGAAAUGUAGUUGACGAGGAGGAGGUUUAUCGAAUUUUCGGCGGAUGCCUCCAAA

± gives the standard error. Variants at the background level are over-represented here.

Holding throughout (details): with glucosamine-6-phosphate
The variants in series [1] derive from B1. In words: self-cleavage kobs at 160 uM GlcN6P; higher = faster cleavage; RNA array. In a few lines: (§1)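 E. coli RNA polymerase transcribed barcoded ribozyme variants in situ on sequenced MiSeq chips, which were tracked via a hybridised Cy3 probe at 37 °C. Tiles were imaged over ~14 h after glucosamine-6-phosphate (40 μM to 10 mM) in HEPES/KCl/Mg(OAc)2 buffer was flowed in. Normalised per-tile medians were fit to one- or two-exponential decays for kobs, and kcat and KM came from weighted Michaelis–Menten fits.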

Variants of B1 are the subject of series [2]. Briefly: self-cleavage kobs at 2500 uM GlcN6P; higher = faster cleavage; RNA array. In a few lines: as §1
In series [3] the parent is B1. In words: self-cleavage kobs at 10000 uM GlcN6P; higher = faster cleavage; RNA array. An outline of the steps: as §1

As to AUAAAAGCGCCCGAAUUACAGAAAUGUAGUUGACGAGGAGGAGGUUUAUCGAAUUUACGGCGGAUGCCUCCAAA [A12C C16U U57A], in the series with glucosamine-6-phosphate [1], the “self-cleavage kobs at 160 uM GlcN6P” value is less than 1e-05 s⁻¹.

AUAAAAGCGCCGGAGCUACAGAAAUGUAAUUCACGAUGAGGAGGUUUAUCGAAUUUUCGGCGGAUGCCUCCAAA [A12G A15G G29A G32C G37U]: in the series with glucosamine-6-phosphate [1], the “self-cleavage kobs at 160 uM GlcN6P” value was less than 1e-05 s⁻¹.

Regarding AUAAAAGCGCCAUAACUACAGAAAUGUAAUUGACGAGGAGGAGGUUUAUCGAAUUUUCGGCGGAUCCCUCCAAA [G13U G29A G66C], in the series with glucosamine-6-phosphate [1], the “self-cleavage kobs at 160 uM GlcN6P” value is less than 1e-05 s⁻¹.

Regarding AUAAAAGCGGCAGAACUACAGAAAUGUAGUUGACGAGGGGGAGGUUUAUCGAAUUUUCGGCGGAUACCUCCAAA [C10G A39G G66A], the “self-cleavage kobs at 160 uM GlcN6P” value with glucosamine-6-phosphate [1] is less than 1e-05 s⁻¹. The “self-cleavage kobs at 2500 uM GlcN6P” value with glucosamine-6-phosphate [2] is less than 1e-05 s⁻¹.

For the variant AUAAAAGCGCCAGGACUACAGAAAUGUAGUUAACGAGUAGGAGGUUUAUCGAAUUUUCGGCGGAUGCCUCCAAA [A14G G32A G38U], the “self-cleavage kobs at 160 uM GlcN6P” value in the series with glucosamine-6-phosphate [1] was less than 1e-05 s⁻¹. Besides, in the series with glucosamine-6-phosphate [2], the “self-cleavage kobs at 2500 uM GlcN6P” value was less than 1e-05 s⁻¹. Moreover, the “self-cleavage kobs at 10000 uM GlcN6P” value with glucosamine-6-phosphate [3] was less than 1e-05 s⁻¹.

As to AUAAAAGCGCCAGAUAUACAGAAAUGUAGUUGACGCGGAGGAGGUUUAUCGACUUUUCGGCGGAUGCCUCCAAA [A15U C16A A36C A53C], in the series with glucosamine-6-phosphate [1], the “self-cleavage kobs at 160 uM GlcN6P” value is less than 1e-05 s⁻¹.

Consider AUAAAAGCGCCACAACUACAGAAAUGUAGUUGACGAGGAGGAGGUUUAUCUAAUUUUCGGGGGAUGCCUCCAAA [G13C G51U C61G], for which, in the series with glucosamine-6-phosphate [1], the “self-cleavage kobs at 160 uM GlcN6P” value is less than 1e-05 s⁻¹.

Turning to AUAAAAGCGCCAGCACUACAGAAAUGUAGUUGACGAGGAGGUGGUUUAUCGAAUUUUCGGCGGAUGCCUCCAAA [A14C A42U], the “self-cleavage kobs at 160 uM GlcN6P” value with glucosamine-6-phosphate [1] was less than 1e-05 s⁻¹.

AUAAAAGCGCCACAACUACAGAAAUGUAGUUGACGAGGAGGAGGUUAAUCGAAUUUUCGGCAGAUGCCUCCAAA [G13C U47A G62A]: in the series with glucosamine-6-phosphate [1], the “self-cleavage kobs at 160 uM GlcN6P” value is less than 1e-05 s⁻¹. For the same variant, the “self-cleavage kobs at 2500 uM GlcN6P” value with glucosamine-6-phosphate [2] is less than 1e-05 s⁻¹.

As for AUAAAAGCGCCCGAACUACAGAAAUGUAGUUGACGAGGAGGAUGUUUAUCGAAUUUUCGCCGGAUGCCUUCAAA [A12C G43U G60C C70U], the “self-cleavage kobs at 160 uM GlcN6P” value with glucosamine-6-phosphate [1] was less than 1e-05 s⁻¹. The “self-cleavage kobs at 2500 uM GlcN6P” value with glucosamine-6-phosphate [2] is less than 1e-05 s⁻¹. In addition, the “self-cleavage kobs at 10000 uM GlcN6P” value with glucosamine-6-phosphate [3] is less than 1e-05 s⁻¹.

As to AUAAAAGCGCCGGAACUACAGAAAUGUAGUUGACGAGGAGGAGGUUUCUCGAAUUUAAGGCGGAUGCCUCCAAA [A12G A48C U57A C58A], the “self-cleavage kobs at 160 uM GlcN6P” value with glucosamine-6-phosphate [1] is less than 1e-05 s⁻¹. The “self-cleavage kobs at 2500 uM GlcN6P” value with glucosamine-6-phosphate [2] was less than 1e-05 s⁻¹.

For AUAAAAGCGCCUGAACUACAGAAAUGUAGUUGACGAGGAGGAGGUCUAUCGAAUUUUCGGCGGAUGACUCCAAA [A12U U46C C67A], the “self-cleavage kobs at 160 uM GlcN6P” value with glucosamine-6-phosphate [1] was 0.00011 ± 2.6e-05 s⁻¹. The “self-cleavage kobs at 2500 uM GlcN6P” value with glucosamine-6-phosphate [2] amounted to 0.00113 ± 0.0002 s⁻¹.

On to AUAAAAGCGCCAGGACUACAGAAAUGUAGUUGACGAGGAGGCGGUUUAUCGAAUUUUCGGCGGAUGCCUCCAAA [A14G A42C], for which, in the series with glucosamine-6-phosphate [1], the “self-cleavage kobs at 160 uM GlcN6P” value is less than 1e-05 s⁻¹.

Turning to AUAAAAGCGCCGGAACUACAGAAAUGUAGUCCACGAGGAGGAGGUUUAUUGAAUUUUCGGCGAAUGCCUCCAAA [A12G U31C G32C C50U G63A], the “self-cleavage kobs at 160 uM GlcN6P” value with glucosamine-6-phosphate [1] is less than 1e-05 s⁻¹.

Take AUAAAAGCGACAAAACUACAGAAAUGUAGUUUACGAGGAGGAGGUUUAUCGAAUUUUCGGCGGAUGCCUCCAAA [C10A G13A G32U]: the “self-cleavage kobs at 160 uM GlcN6P” value with glucosamine-6-phosphate [1] was less than 1e-05 s⁻¹.

Turning to AUAAAAGCGCCACAACUACAGAAAUGUAGUUGACGAGGAGGAGGUUUAUGGAAUUUUCGGCGGAUGCCUCCAAA [G13C C50G], the “self-cleavage kobs at 160 uM GlcN6P” value with glucosamine-6-phosphate [1] was 0.00119 ± 0.00034 s⁻¹.

With AUAAAAGCGCCUGAACUACAGAAAUGUAGCUGACGAGGAGGAGGUUUAUCUAAUUUUCGGCGGAUGCCUCCAAA [A12U U30C G51U], the “self-cleavage kobs at 160 uM GlcN6P” value with glucosamine-6-phosphate [1] was less than 1e-05 s⁻¹.

As to AUAAAAGCGCCACAAUUACAGAAAUGUAGUUGACGAGUAGGAGGUUUAUCGAAUUUUCGGCGGAUGCCUCCAAA [G13C C16U G38U], in the series with glucosamine-6-phosphate [1], the “self-cleavage kobs at 160 uM GlcN6P” value was less than 1e-05 s⁻¹.

For the variant AUAAAAGCGCCAUAACUACAGAAAUGUAGUUGACGAGGAGAAGGUUUAUCGAAUUUUCGGCGGAUGCCUCUAAA [G13U G41A C71U], in the series with glucosamine-6-phosphate [1], the “self-cleavage kobs at 160 uM GlcN6P” value was less than 1e-05 s⁻¹.

In the case of AUAAAAGCGCCAUAACUACAGAAAUGUAGUUGACGAGGAGGAGGUUUUUCGAAUUUUCGGCGGAUGCCUCCAAA [G13U A48U], in the series with glucosamine-6-phosphate [1], the “self-cleavage kobs at 160 uM GlcN6P” value was less than 1e-05 s⁻¹.

Consider AUAAAAGCGACAGGACUACAGAAAUGUAGUUGACGAGGAGGAGGUUUAUCGAAUUUUCGGCAGAUGCCUCCAAA [C10A A14G G62A], for which the “self-cleavage kobs at 160 uM GlcN6P” value with glucosamine-6-phosphate [1] was less than 1e-05 s⁻¹. Besides, in the series with glucosamine-6-phosphate [2], the “self-cleavage kobs at 2500 uM GlcN6P” value was less than 1e-05 s⁻¹.

Regarding AUAAAAGCGCCUGAACUACAGAAAUGUAGUUCAUGAGGAGGAGGUUUAUCGAAUUUUCGGCGGAUGCCUCCAAA [A12U G32C C34U], the “self-cleavage kobs at 160 uM GlcN6P” value with glucosamine-6-phosphate [1] was less than 1e-05 s⁻¹. Besides, in the series with glucosamine-6-phosphate [2], the “self-cleavage kobs at 2500 uM GlcN6P” value is less than 1e-05 s⁻¹.

Regarding AUAAAAGCGCCAGAUCUACAGAAAUGUAGUUGCCGAGGAUGAGGUUUAUCGAAUUUUCGGCGGAUGCCUCCAAA [A15U A33C G40U], the “self-cleavage kobs at 160 uM GlcN6P” value with glucosamine-6-phosphate [1] is less than 1e-05 s⁻¹.

In the case of AUAAAAGCGGCAGGACUACAGAAAUGUAGUUGACGACGAGGAGGUUUAUCGAAUUUUCGGCGGAUGCCUUCAAA [C10G A14G G37C C70U], in the series with glucosamine-6-phosphate [1], the “self-cleavage kobs at 160 uM GlcN6P” value is less than 1e-05 s⁻¹.

AUAAAAGCGCCAGAGCUACAGAAAUGUAGUUGACGCGGAGGAGGUUUAUCGAAUUUUCGGCGGAUGCCUCCAAA [A15G A36C]: the “self-cleavage kobs at 160 uM GlcN6P” value with glucosamine-6-phosphate [1] was less than 1e-05 s⁻¹.

As for AUAAAAGCGCCAUAACUACAGAAAUGUAGUUGACGUGGAGGAAGUUUAUCAAAUUUUCGGCGGAUGGCUUCAAA [G13U A36U G43A G51A C67G C70U], the “self-cleavage kobs at 160 uM GlcN6P” value with glucosamine-6-phosphate [1] is less than 1e-05 s⁻¹. Also, the “self-cleavage kobs at 2500 uM GlcN6P” value with glucosamine-6-phosphate [2] was less than 1e-05 s⁻¹.
